Results on two molecules are retold here after US7384915B2, “Chimeric insulin-gad proteins for treating patients with type 1 diabetes or at risk of developing type 1 diabetes” (Alexion Pharmaceuticals, Inc., priority 1997, dated 2008).

Assay [1] has as its system NOD/SCID mice injected with diabetogenic spleen cells. Kind of assay: NOD/SCID adoptive transfer model of IDDM. The class given is in vivo, mouse. The following applies: IV, 300 ugs of antigen twice daily every other day, day 3 to day 9 after spleen cell transfer; FIG. 5. The protocol: Experiments in the NOD/SCID Adoptive Transfer Model: Spleen mononuclear cells were harvested from diabetic NOD mice of recent disease onset (diabetic not more than 3 weeks) and about 35×10^6 of these spleen cells in 0.2 ml of PBS were injected intravenously into 6-8 week old NOD/SCID mice. Onset of diabetes was monitored biweekly by urine glucose testing and confirmed by blood glucose testing on day 28 relative to the time of spleen cell transfer. At day 28, these mice were sacrificed and examined histologically.
Diabetogenic splenic mononuclear cells were harvested from newly diabetic NOD mice (onset less than 3 weeks previous). To initiate the destruction of islet beta cells and the development of diabetes, 8-12 week old NOD/SCID mice were injected intravenously with 35×10^6 diabetogenic spleen cells. The incidence and onset of diabetes were monitored biweekly by urine glucose testing and confirmed by blood glucose testing at the end of the experiment. The average onset time of diabetes after disease induction was approximately 25 days. IV treatment with IG2, IG3, or islet beta cell antigens was initiated on day 3. Animals were treated with 300 ugs of antigen twice daily every other day for a period of six days (from day 3 to day 9, where the time of spleen cell transfer was day 0).

Assay [2] has as its system non-diabetic male NOD mice. In words: CYTOXAN (cyclophosphamide) induced IDDM model, antigen treatment. The following applies: FIG. 4; for reduction in the incidence of diabetes compared to BSA treated control animals: 100 ug and 300 ug doses. The class given is in vivo, mouse. An excerpt:
Experimental Methods Non-obese diabetic (NOD) mice are a strain of mice that are prone to the development of diabetes, and represent an accepted model system for the study of diabetes mellitus. These mice, designated NOD/MrkTacfBR, were purchased from Taconic Farms (Germantown, N.Y.). NOD SCID mice, designated NOD/SCID, are available from the Jackson Laboratories, Bar Harbor, Me. The incidence of diabetes by 200 days of age in these mice is 80% in females and 50% in males. At 110 days of age, fewer than 15% of the male NOD mice became diabetic. […] In contrast, animals treated with either ICB or either of GAD 65 250-273 or 520-555 peptides, experienced reductions to less than 50% incidence of diabetes. The therapeutic effects of treatment with combinations of ICB and the two GAD peptides were then examined (FIG. 3).

B1: IG1: chimeric insulin-GAD 65 fusion protein, SEQ ID NO:1 (protein)
chain: [sequence of about 40 residues omitted]RREAEDLNMYAMMIARFKMFPEVKEKGMAALPRLIAFTSEKCLELAEYLYNIIKNREGYEMVFDGKPQHTNVCFWYIPPSLRTLEDNEERMSRLSKVAPVIKARMMEYGTTMVSYQPLGDKVNHHHHHH
modifications: IG1 fusion protein for hGAD65 (human glutamate decarboxylase)
In the case of B1, in assay [1], the “onset of disease in NOD/SCID recipients” value was “only a slight delay in disease onset”. Further, the “reduction in the incidence of diabetes compared to BSA treated control animals” value in assay [2] was “dose-dependent reduction in the incidence of diabetes”.

B2: IG2: chimeric insulin-GAD 65 fusion protein, SEQ ID NO:2 (protein)
chain: [sequence of about 40 residues omitted]RREAEDLMNILLQYVVKSFDNMYAMMIARFKMFPEVKE[sequence of about 20 residues omitted]LKKCLELAEYLYNIIKNREGYEMVFDGKPQHTNVCFWYIPPSLRTLEDNEERMSRLSKVAPVIKARMMEYGTTMVSYQPLGDKVNHHHHHH
modifications: IG2 fusion protein for hGAD65 (human glutamate decarboxylase)
For B2, the “onset of disease in NOD/SCID recipients” value in assay [1] is given as “prevented the onset of disease”. In assay [2], the “reduction in the incidence of diabetes compared to BSA treated control animals” value is reported as “dose-dependent reduction in the incidence of diabetes” and the “reduction of incidence of diabetes, IG2 compared with IG1” value was “reduced the incidence of diabetes to a greater degree than IG 1”. Also, in assay [2] (300 ug doses, BSA controls greater than 80%), the disease incidence result is “less than 12%”.
